Among all 150,000 compounds or so, about 540 (0.36%) showed an effect of 50% or more. This is one part of the list.

The test concerns Plasmodium falciparum. Briefly: Primary screen in NF54 nanoGlo assay, in single point, at 2uM, 72h; a lower Z score goes with more inhibition. The conditions noted are these: timepoint 72 hour. In kind it is functional, Erythrocyte.
A word on the % Inhibition: it is the relative decrease from the control value, in per cent. `COc1ccc(-c2cc(-c3ccc(OC)cc3)nc(-c3ccc4c(c3)NC(=O)CO4)c2)cc1`: the “% Inhibition” value is given as -29% and the Z score was found to be 3.39.
In the same order, the values of `O=C(NCc1nnc2ccccn12)[C@@H]1Cc2cc(Cl)ccc2N1` are -5% and 0.63.
In the same order, the values of `Cc1ccc(-c2nsc(NC(=O)[C@H]3CCS(=O)(=O)C3)n2)s1` are -7% and 1.23.
On to `Cc1nnsc1C(=O)NCC1(CO)CC1`, for which the “% Inhibition” value was -19% and the Z score turned out to be 2.78.
`CCn1cc(S(=O)(=O)N2CC[C@H](Cc3nnc(-c4ccccc4)o3)C2)cn1`: the “% Inhibition” value was -18% and the Z score was 2.64.
On the same counts, the results for `C=CC[C@]1(CO)CCCN(C(=O)c2cc(CCC)nn2C)C1` are -6% and 1.09.
As for `Cc1nn(C)c(Oc2cccc(F)c2)c1NC(=O)c1ccccn1`, the “% Inhibition” value was -2% and the Z score was 0.28.
On the same counts, the results for `Cc1cc(Cl)ccc1OCCN1CCN(C(=O)c2cncnc2C)CC1` are -5% and 0.76.
On to `C(=Cc1csc(-c2ccccn2)n1)c1ccncn1`, for which the “% Inhibition” value came to 9% and the Z score is reported as -0.98.
Turning to `CC(C)n1nccc1NC(=O)C[C@@H]1OCCc2ccsc21`, the “% Inhibition” value was determined as 0% and the Z score is recorded as 0.05.
In the same order, the values of `c1csc(N2CCN(c3nnc(C4CC4)o3)CC2)n1` are -5% and 0.73.
In the same order, the values of `CCCc1nc(CN(C)Cc2ccc(Cl)o2)no1` are -8% and 1.67.
Regarding `O=C(Nc1cnc(C2CC2)nc1)N1CCN(c2ccncc2Cl)CC1`, the “% Inhibition” value was -8% and the Z score is on record as 0.94.
As to `CCCCN1CCN(Cc2cc(C)cc(C)c2)[C@H]2CS(=O)(=O)C[C@H]21`, the “% Inhibition” value is recorded as -23% and the Z score came to 2.92.
As to `CC(C)(C)c1ccc(S(=O)(=O)N2C=CC(C(F)(F)Cl)=NCC2)cc1`, the “% Inhibition” value is -4% and the Z score is 0.49.
In the same order, the values of `CCOc1ccc(-c2noc(CN3N=NC4C(=O)N(c5ccc(C)c(F)c5)C(=O)C43)n2)cc1OC` (stereo not given) are 0% and 0.
On to `O=C(NCc1nnc(C(=O)Nc2cccc(F)c2)s1)c1ccc(F)cc1`, for which the “% Inhibition” value was -3% and the Z score was 0.52.
Regarding `Cc1cc(C)nc(NCc2nocc2C)n1`, the “% Inhibition” value was determined as 4% and the Z score is -0.71.
In the same order, the values of `O=C(NC1CCOCC1)c1nn(-c2ccc(Cl)cc2Cl)c2c1CCC2` are -14% and 2.46.
In the same order, the values of `CC(C)(C)c1nc(N[C@H]2CC[C@@H](CO)C2)no1` are -7% and 0.76.
As for `CC1(C)CN(C(=O)NCc2nnc3ccccn23)CCN1Cc1ccccc1`, the “% Inhibition” value was -9% and the Z score stood at 1.02.
In the same order, the values of `O=C(c1ccccc1)N1CCN([C@H]2CC(=O)N(c3ccccc3)C2=O)CC1` are -9% and 1.42.
Take `O=C1CN(c2ncccc2NC(=O)c2cccc(F)c2F)CCN1`: the “% Inhibition” value is listed as -4% and the Z score came to 0.51.
For the compound `O=C(c1cccc2cc[nH]c12)N1CCCO1`, the “% Inhibition” value is -5% and the Z score was found to be 0.78.
For the compound `FC(F)(F)c1nc(-c2cc(NCc3ccncc3)nc3[nH]ccc23)n[nH]1`, the “% Inhibition” value is reported as -7% and the Z score was found to be 0.87.
Consider `Cc1ccc(Cn2c(=O)c3c(nc(N4CCNCC4)n3C)n(C)c2=O)cc1`, for which the “% Inhibition” value is given as 0% and the Z score is recorded as -0.07.
For the compound `[O-][S+]1CCN(Cc2cc(F)cc(C(F)(F)F)c2)CC1`, the “% Inhibition” value is listed as -8% and the Z score was determined as 1.24.
On the same counts, the results for `CC(=O)N1CCC[C@@](NCc2nc3ccccc3[nH]2)(c2nnnn2CCC(C)C)C1` are -12% and 1.54.
In the same order, the values of `COc1ccc(-c2ccc(CNC(=O)c3nc(=O)[nH][nH]3)s2)cc1` are -17% and 2.1.
On the same counts, the results for `COCc1noc(C[C@H]2CN(C(=O)Nc3cc(C)ccc3OC)CCO2)n1` are -3% and 0.55.
Take `Cn1cc(C#N)cc1C(=O)N1CCOC[C@@H]1Cc1ccccc1`: the “% Inhibition” value was -7% and the Z score amounted to 0.64.
On the same counts, the results for `CCN1CCC(N(C)S(=O)(=O)c2cncc(Br)c2)C(C)C1` (stereo not given) are -5% and 0.93.
In the same order, the values of `CC[C@@H](CS(=O)(=O)Nc1cc(-c2nnn[nH]2)ccc1F)OC` are 4% and -0.56.
With `CC1CCC(OC2CCN(C(=O)c3nccnc3N)CC2)CC1` (stereo not given), the “% Inhibition” value is listed as 1% and the Z score is reported as -0.13.
As for `COc1ccc(-c2c[nH]c(C(=O)N3CCCCC3)c2)c(C)c1`, the “% Inhibition” value is on record as -8% and the Z score stood at 1.36.
In the same order, the values of `Cc1cc(N2CCOCC2)ccc1NC(=O)Cc1csc(NC(=O)c2ccccc2)n1` are -5% and 0.93.
On to `COc1ccc(C2c3c([nH][nH]c3=O)CC(C)(O)C2C(=O)Nc2ccccc2C)cc1` (stereo not given), for which the “% Inhibition” value is on record as -3% and the Z score is reported as 0.3.
On the same counts, the results for `CC(C)(C)c1cc[n+]2c(c1)ncc1sc(=O)[n-]c12` are -4% and 0.57.
Turning to `CNC(=O)Cn1c(Cc2ccccc2)nn(-c2ccccc2OC)c1=O`, the “% Inhibition” value is recorded as 7% and the Z score is -0.98.
On the same counts, the results for `Cc1csc(C(C)(C)NCc2nnc(C(C)C)o2)n1` are -13% and 1.71.
For `O=S(=O)(CC1CC(F)(F)C1)N1CCOC[C@H]1c1ncnn1-c1ccccc1`, the “% Inhibition” value is listed as -4% and the Z score is on record as 0.85.
`O=C(c1c[nH]c(=O)c(Br)c1)N1CCOC2CCCCC21` (stereo not given): the “% Inhibition” value was -9% and the Z score came to 1.17.
As to `COc1cc([C@H]2CC(=O)Nc3nc(N)sc32)ccc1OCc1cccc(F)c1`, the “% Inhibition” value is -16% and the Z score is on record as 2.03.
In the same order, the values of `CC(C)CNC(=O)N1CCc2c(c(-c3nc(C4CC4)no3)nn2C)C1` are -6% and 1.04.
In the same order, the values of `Cc1ccc2oc(N3CC[C@H](N4CCN(C)CC4)[C@H](CCCO)C3)nc2c1` are 1% and -0.24.
`CN1CCC(N(Cc2cccnc2)C(=O)Nc2ccccc2C(F)(F)F)CC1`: the “% Inhibition” value is given as -10% and the Z score stood at 1.43.
Regarding `Cc1cc(C)nc(CN(C)C[C@@H]2CC=CCC2)c1`, the “% Inhibition” value was -8% and the Z score is 1.63.
In the same order, the values of `c1cc(-c2ccn(C[C@H]3COCCO3)n2)cc(-c2nccs2)c1` are -16% and 1.48.
On the same counts, the results for `O=C(Cc1cnn(-c2ccccc2)c1)NC1CC1` are -5% and 0.77.
On the same counts, the results for `CO[C@@H](C)c1nc(CN(C)C(=O)c2ccc(C(C)C)cn2)cs1` are -10% and 1.76.
Regarding `Cc1nc(-c2ccccc2)c(C(=O)N(C)[C@@H](C)c2ccon2)s1`, the “% Inhibition” value is given as -5% and the Z score is 0.77.
In the case of `COC(=O)c1ccnc(NS(=O)(=O)Cc2ccc(C)c(F)c2)c1`, the “% Inhibition” value was -13% and the Z score is listed as 1.16.
On the same counts, the results for `CN(C)S(=O)(=O)N1CCC(CNS(=O)(=O)c2ccc(-n3cccn3)cc2)CC1` are -4% and 0.51.
In the same order, the values of `CCOc1ccc(-c2cn(Cc3ccncc3)nn2)cc1Cl` are -10% and 2.05.
On the same counts, the results for `CCc1ncc2c(n1)CN(C(=O)c1cc(C3CC3)nc3ccccc13)C2` are -11% and 1.04.
For the compound `O=C(Nc1ccccc1N1CCOCC1)[C@H]1CCCN(c2c(-c3ccccc3)c3cc(Cl)ccc3[nH]c2=O)C1`, the “% Inhibition” value was -44% and the Z score is reported as 5.17.
In the same order, the values of `CCOc1cccc2c1Oc1c(c(=O)n(-c3ccc(CC)cc3)n1CC(=O)NCc1ccccc1)C2` are -16% and 1.63.
On the same counts, the results for `C[C@@]1(C(=O)NC2(CN3CCCC3)CCCCC2)CCCO1` are -12% and 1.23.
On the same counts, the results for `CCOC[C@H](NCc1cc(C#N)ccc1F)C(C)C` are -10% and 1.84.
As for `CC(C)(C)OC(=O)NC[C@H](O)c1ccccc1Cl`, the “% Inhibition” value came to 0% and the Z score was found to be 0.01.
For `N#CCNC(=O)c1cccc(Br)c1`, the “% Inhibition” value turned out to be 9% and the Z score is -1.24.
Regarding `CNC(=O)[C@@H]1C[C@@H](Nc2ncccn2)CN1Cc1coc(-c2ccccc2)n1`, the “% Inhibition” value is listed as -11% and the Z score is 1.
On the same counts, the results for `CCc1cccc(NC(=O)c2ccc3c(=O)n4c(nc3c2)CCCC4)c1` are -1% and 0.16.
With `C[C@H](Nc1ccc(Cl)c(F)c1)C(=O)NC(N)=O`, the “% Inhibition” value is listed as -2% and the Z score is reported as 0.22.
On the same counts, the results for `Cc1cn(C)nc1NC(=O)N1CC(O)(c2cccc(Br)c2)C1` are -5% and 0.78.
On the same counts, the results for `O=C(Cn1c(=O)cnc2ccccc21)N1CCCc2ccccc21` are 1% and -0.26.
For the compound `CN(C)Cc1ccccc1C(=O)N1CCN(c2nc[nH]n2)CC1`, the “% Inhibition” value is on record as -7% and the Z score is on record as 0.99.
In the case of `Cc1cc2c(N3CCC[C@@H]3CO)nccn2n1`, the “% Inhibition” value is -11% and the Z score was 1.44.
On the same counts, the results for `CCOCCn1cnc(-c2ccccc2)c1-c1cnc2cc(O)ccc2c1` are -1% and 0.14.
Consider `N#Cc1cccc(Nc2c3c(nc4ccc(Cl)cc24)CCCC3)c1`, for which the “% Inhibition” value is recorded as -6% and the Z score worked out at 0.83.
In the same order, the values of `COc1cc(C)cc2c(C)c(C(=O)N3CC(C(F)(F)F)C3)oc12` are -5% and 0.64.
Consider `CCOC(=O)N1CCC(Nc2nnc(C)o2)CC1`, for which the “% Inhibition” value is recorded as -16% and the Z score was found to be 2.08.
In the same order, the values of `O=S(=O)(c1ccc(F)cc1)N1CCN(Cc2nc3ccccc3o2)CC1` are -26% and 2.29.
With `Cc1ccsc1S(=O)(=O)N1CC2(CCC2(F)F)C1`, the “% Inhibition” value is listed as 1% and the Z score is -0.27.
On the same counts, the results for `C[C@H](O)[C@H](C(=O)O)n1cnc(-c2ccccc2)c1-c1ccc(N(C)C)nc1` are -15% and 2.91.
On the same counts, the results for `CCO[C@H]1CN(C(=O)c2cc(C)oc2C)C[C@@H]1O` are 5% and -0.84.
In the same order, the values of `O=S(=O)(c1ccc2oc3ccc(S(=O)(=O)N4CCCC4)cc3c2c1)N1CCCC1` are -14% and 1.79.
Consider `O=C1N(CC2CCC2)CCC[C@@]1(O)CNC1Cc2ccccc2C1`, for which the “% Inhibition” value is reported as -24% and the Z score was found to be 2.15.
Take `Cc1ccc(N(Cc2ccco2)C(=O)c2ccc(C(N)=O)cn2)cc1`: the “% Inhibition” value was -1% and the Z score worked out at 0.14.
In the same order, the values of `CCCNC(=O)NC(=O)COc1ccc(Br)cc1C#N` are -10% and 1.3.
In the same order, the values of `CC(C)=CCN1CCC(CNC(=O)c2cnn(C)c2C)CC1` are -2% and 0.23.
In the case of `CCNc1nc(C(=O)N2CCN(C3CC3)C[C@H](C)C2)cs1`, the “% Inhibition” value is on record as -7% and the Z score was determined as 1.
In the case of `O=C([C@H]1CCCNCC1)N1CC=C(c2ccccc2)CC1`, the “% Inhibition” value turned out to be 1% and the Z score was -0.11.
With `CN(C(=O)NCCCc1nc(-c2ccccn2)cs1)C1CCCC1`, the “% Inhibition” value is recorded as -13% and the Z score was 2.27.
On the same counts, the results for `O=S(=O)(CC1CC2(CCC2)C1)N1CC2(CCC2)[C@H]1c1ccncc1` are -7% and 1.05.

These data come from ChEMBL document CHEMBL4888484, “Replenishing the malaria drug discovery pipeline: Screening and hit evaluation of the MMV Hit Generation Library 1 (HGL1) against asexual blood stage Plasmodium falciparum ,using a nano luciferase reporter read-out” (2022).
